The structures appear in SMILES notation. “And” between values parts separate entries of the source, which are not always exact repeats. Equal values may be shown once.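 Tested at 5 concentrations; 48 h exposure; 96-well plates; endpoints linearly interpolated, else capped at highest concentration. At the GI50, growth is halved.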 The source made the active and inactive calls. No stated cut-off is given here; in the data, active = GI50 up to about 1.1 µM and inactive = higher.

This assay has as its system NCI-H322M. The assay can be described thus: growth of human tumour cells (NCI), 48 h.
On to `CC(C)(C)OCC1NC(=O)[C@@H]2Cc3c([nH]c4ccccc34)C(c3ccccc3)N2C1=O` (some centres not stated), for which the GI50 is inactive: > 50 µM.

As to `Cc1cn([C@H]2C[C@H](O)[C@@H](CO)O2)c(=O)nc1N`, the GI50 was inactive: > 100 µM.

As to `Cc1cc(-c2cc(C)c(O)c(C(C)(C)C)c2)cc(C(C)(C)C)c1O`, the GI50 is inactive: 13.5 µM and inactive: 15.4 µM.

On to `COC(=O)c1c(C(=O)OC)c2cc(C(=O)c3ccccc3)ccn2c1Cl`, for which the GI50 was inactive: > 100 µM.

For `COC(=O)c1ccc2c(O)c(O)ccc2c1`, the GI50 is inactive: 17.2 µM.

On to `CCCCCCCCCCCCCC(=O)NO`, for which the GI50 is inactive: 16.9 µM.

On to `[O-][S+]1CSSC1`, for which the GI50 is inactive: 25.6 µM.

Consider `C#C[C@]1(O)CC[C@H]2[C@@H]3CCC4=C/C(=N/OC(=O)c5cccc6c(=O)c7ccccc7[nH]c56)CCC4[C@H]3CC[C@@]21CC` (some centres not stated), for which the GI50 is inactive: 49.1 µM.

Regarding `O=C(/C=C/c1ccc2ccccc2c1)NCc1ccc(C(=O)NCc2ccccc2)cc1`, the GI50 was inactive: > 100 µM.

As for `O=C(Cl)C1=C(c2ccccc2)C1c1ccccc1` (configuration not stated), the GI50 was inactive: > 100 µM.

Take `O=C(Nc1ccc(Cl)cc1)c1cc([N+](=O)[O-])ccc1O`: the GI50 was inactive: 4.04 µM.

Consider `O=C1C(=Cc2ccccc2[N+](=O)[O-])N=C(c2ccccc2)N1n1c(-c2ccccc2)nc2ccccc2c1=O`, for which the GI50 was inactive: 30.6 µM.

With `O=C(c1ccc(Cl)cc1)N(C(=S)N1CCN(c2ccccc2)CC1)C1CCCCC1`, the GI50 is inactive: > 100 µM.

For the compound `COc1ccc(N2C(=O)C3c4[nH]c5ccc(F)cc5c4C4CCC(c5ccccc5)CC4C3C2=O)cc1` (configuration not stated), the GI50 is inactive: 72.1 µM.

For the compound `CC(=O)N1C(=O)C(=O)c2cc(Cl)ccc21`, the GI50 is inactive: > 100 µM.

As for `COC1=CC(=O)c2ccc(C(C)C)cc2C1(C)C1=NC(C)(C)CO1` (configuration not stated), the GI50 is inactive: > 100 µM.

On to `CN(C)CCNc1ccc(C(=O)NCCCN(C)CCCNC(=O)c2ccc(NCCN(C)C)c3c(=O)c4ccccc4[nH]c23)c2[nH]c3ccccc3c(=O)c12`, for which the GI50 was active: 0.0254 µM.

Take `O=C1/C(=C/c2ccccc2)CN(C(=O)OCC(Cl)(Cl)Cl)C/C1=C\c1ccccc1`: the GI50 was inactive: 10.6 µM.

For `COc1ccc(/C=N/NS(=O)(=O)c2ccc(/C=C3\NC(=O)NC3=O)cc2)cc1`, the GI50 was inactive: 95.5 µM.

For the compound `ClCc1ccc(C2OCCO2)cc1`, the GI50 was inactive: 21.6 µM.

In the case of `C[P+](C)(CC(F)(F)F)c1ccccc1`, the GI50 was inactive: > 100 µM.

On to `CC[C@@H]1C[C@@H](O)[C@@H]2[C@H](O)[C@H](O)CN2C1`, for which the GI50 was inactive: > 100 µM.

Take `O=C(NN=C1NCCN1)c1ccco1`: the GI50 is inactive: > 100 µM.

For `O=[N+]([O-])c1cccc2nnccc12`, the GI50 was inactive: 18.5 µM.

Regarding `Clc1ccc2c(NCCCCN3OC3c3ccccc3)ccnc2c1` (configuration not stated), the GI50 is inactive: 9.44 µM.

Regarding `O=C(c1ccccc1)[C@H]1Nc2ccc(Cl)cc2C2c3ccccc3CC21` (some centres not stated), the GI50 is inactive: 45.6 µM.

On to `CC(C)(C)CN1[C@@H]2CCCC[C@H]2N(CC(C)(C)C)P1(=O)Cc1ccccc1`, for which the GI50 is inactive: 14.7 µM.

With `CCOC(=O)C(Cc1ccc(OC(=O)OC(C)(C)C)cc1)NC(=O)OC(C)(C)C` (configuration not stated), the GI50 is inactive: > 100 µM.

Regarding `COc1ccc(NC(=O)C(=O)c2c(O)c3ccc(O)cc3oc2=O)c([N+](=O)[O-])c1`, the GI50 was inactive: > 100 µM.

As for `Cc1cccc(C)c1NC(=O)/C=C/c1ccccc1`, the GI50 was inactive: > 100 µM.

On to `CN(CCCNC(=O)c1nn(-c2ccc(Cl)cc2Cl)c2c1ccc1ccccc12)CCCNC(=O)c1nn(-c2ccc(Cl)cc2Cl)c2c1ccc1ccccc12`, for which the GI50 is inactive: 1.69 µM.

Take `CCCC(=O)Nc1cc(/C=C/C(=O)N2CC(CCl)c3c2cc(OC(C)=O)c2[nH]cc(C)c32)n(C)c1` (configuration not stated): the GI50 is active: 5.01e-05 µM.

As for `O=C(O)CC1NCc2cc3ccccc3nc21` (configuration not stated), the GI50 was inactive: > 100 µM.

Consider `Cc1cc2[n-][n+]3ncc(-c4ccccc4)n3c2cc1[N+](=O)[O-]`, for which the GI50 is inactive: > 100 µM.

In the case of `CC(=O)OCC1OC(Nc2ccc3nc(C)n(-c4ccccc4)c(=O)c3c2)C(OC(C)=O)C(OC(C)=O)C1OC(C)=O` (configuration not stated), the GI50 was inactive: > 50 µM.

In the case of `O=c1cc(NCc2ccncc2)[nH]c(=O)[nH]1`, the GI50 was inactive: > 100 µM.

Take `O=C(O)c1c[nH]c2c(ccc3ncccc32)c1=O`: the GI50 was inactive: > 100 µM.

With `Cn1cnc([N+](=O)[O-])c1[Se]c1nc(N)nc2c1ncn2C1OC(CO)C(O)C1O` (configuration not stated), the GI50 was inactive: > 100 µM.

Turning to `NC1=NCC(c2ccccn2)C1c1ccc(F)cc1` (configuration not stated), the GI50 is inactive: > 100 µM.

For `O=C(Nc1nc2ccc([N+](=O)[O-])cc2s1)C(=O)C(C(=O)c1ccncc1)C1OC(=O)c2ccccc21` (configuration not stated), the GI50 is inactive: 90.6 µM.

Regarding `C=CC1(C)CCC2C(=CCC3C2(C)CC(O)C(O)C3(C)COC2OC(CO)C(O)C(O)C2O)C1` (configuration not stated), the GI50 was inactive: > 100 µM.

Regarding `CC12CCc3ccccc3C1=NNC(=O)C2` (configuration not stated), the GI50 is inactive: > 100 µM.

As for `COc1nc(N=P(c2ccccc2)(c2ccccc2)c2ccccc2)cc(=O)[nH]1`, the GI50 is inactive: > 100 µM.

With `CCCC(=O)OC1C(C2COC(C)(C)O2)OC2OC(C)(C)OC21` (configuration not stated), the GI50 is inactive: > 100 µM.

For the compound `Nc1ccc(C2=N/C(=C\c3cccc(N)c3)C(=O)O2)cc1`, the GI50 was inactive: > 100 µM.

Turning to `Cc1csc2c(P(=O)(OC(C)C)OC(C)C)c(-c3ccccc3)cn12`, the GI50 is inactive: 12.1 µM.

Take `O=C1OC(O)C(Oc2ccc(Cl)cc2)=C1Cl` (configuration not stated): the GI50 is inactive: > 100 µM.

As for `CCOC(=O)C1=C(C)C(C(=O)OC)/C(=C/c2cccc3cccnc23)C1=O` (configuration not stated), the GI50 is inactive: > 10 µM.

Take `O=C1CCc2c(sc3ncnc(Nc4cccc(Br)c4)c23)C1`: the GI50 was inactive: 3.94 µM.

Turning to `COc1cccc2c1Cc1cc(-c3ccccc3)[n+](C)n1-2`, the GI50 was inactive: 24.3 µM.

Turning to `C=C(C)C(O)C(O)c1c(OC)ccc2ccc(=O)oc12` (configuration not stated), the GI50 is inactive: > 100 µM.

As to `COC1OC(COCc2ccc(Cl)cc2)C(OCc2ccc(Cl)cc2)C1N=[N+]=[N-]` (configuration not stated), the GI50 is inactive: > 100 µM.

In the case of `O=CC1C[C@@H](N2C(=O)O[C@@H](c3ccccc3)[C@H]2c2ccccc2)[C@@H]1COCc1ccccc1` (some centres not stated), the GI50 was inactive: 19.5 µM.

With `O=C1c2cc3c(cc2NC(c2ccccc2F)C1O)OCO3` (configuration not stated), the GI50 is inactive: 13.8 µM.

For the compound `CSC(SC)=C(C#N)C(=O)Nc1cccc(Cl)c1`, the GI50 is inactive: 39.6 µM.

Take `COC(=O)C1=Cc2cn(S(=O)(=O)c3ccc(C)cc3)c3cccc(c23)C(C=C(C)C)N1C(C)=O` (configuration not stated): the GI50 was inactive: > 100 µM.

In the case of `CCC(=O)C12OC3OC(C)(C)OC3C1OC(C)(C)O2` (configuration not stated), the GI50 was inactive: > 100 µM.

As for `Cc1nn2c(nc1=O)sc1ccc3ccccc3c12`, the GI50 is inactive: > 100 µM.

Regarding `CC(=NNC(=S)Nc1ccccc1C)c1cccc(C(C)=NNC(=S)Nc2ccccc2C)n1`, the GI50 was inactive: 6.55 µM.

As to `O=C1c2sc(-c3ccc(Cl)cc3)cc2-n2cccc21`, the GI50 was inactive: > 100 µM.

As for `NC(=O)Nc1cc(O)ccc1/N=N/c1ccc(S(=O)(=O)Nc2ccccn2)cc1`, the GI50 is inactive: > 100 µM.

As to `CC(=O)OCC1OC(n2c(C)c(/N=N/c3ccc(C)cc3)c(C)c(C#N)c2=S)C(OC(C)=O)C(OC(C)=O)C1OC(C)=O` (configuration not stated), the GI50 was inactive: > 100 µM.

As for `O=C1c2ccccc2C(=O)N1NC1=NCCN1`, the GI50 was inactive: > 100 µM.

In the case of `NC(=O)SCC(=O)Nc1ccc2cccc3c2c1CC3`, the GI50 is inactive: 93.1 µM.

Take `O=C(Cn1c2ccc(Br)cc2c2nc3ccccc3nc21)N1CCOCC1`: the GI50 was inactive: > 100 µM.

For the compound `CCOC(=O)c1ccc(-n2c(SCC)nc3sc(C)c(C)c3c2=O)cc1`, the GI50 is inactive: > 100 µM.

For `CSCC[C@@H]1C(=O)N(C)[C@H](C(C)(C)C)N1C(=O)c1ccccc1`, the GI50 was inactive: > 100 µM.

For `O=c1c2ccccc2c(=O)n2n1-c1cccc(c1)CSSCc1cccc-2c1`, the GI50 is inactive: > 10 µM.

Turning to `O=NN(CCCl)C(=O)N[C@H]1CC[C@@H](CC(=O)O)CC1`, the GI50 was inactive: > 100 µM.

Consider `Cc1ccccc1NC(=O)c1cc(-c2ccc([N+](=O)[O-])cc2)nc(S)n1`, for which the GI50 is inactive: > 100 µM.

For `[O-][n+]1onc(-c2ccccc2)c1CN1CCOCC1`, the GI50 is inactive: > 100 µM.

Take `COc1cc2c3cc1Oc1c(OC)c(OC)cc4c1[C@@H](Cc1ccc(O)c(c1)Oc1ccc(cc1)C[C@@H]3N(C)CC2)N(C)CC4.c1ccccc1`: the GI50 is inactive: 19.7 µM.

As to `C/C(=N\[N+](C)(C)C)C(c1ccccc1)C1(c2ccccc2)C(c2ccccc2)=C1c1ccccc1` (configuration not stated), the GI50 is inactive: > 100 µM.

Regarding `Clc1cc(Cl)cc(Nc2nc3ccccc3nc2-c2cccs2)c1`, the GI50 was inactive: 28.5 µM.

Regarding `COc1ccc2c(c1)/C(=C\c1c(Cl)nc3sc(C)cn13)C(=O)N2`, the GI50 was inactive: 6.85 µM.

Take `COC(=O)c1c(C(=O)OC)c2ccccn2c1-c1cc(OC)c(Br)c(=O)o1`: the GI50 was inactive: > 100 µM.

Turning to `O=C1CCc2nc3ncccc3cc2C1`, the GI50 was inactive: > 100 µM.

With `COc1ccccc1/C=C1\CCC(Cc2ccccc2)(CN(C)C)C1=O` (configuration not stated), the GI50 is inactive: 4.27 µM.

Take `S=C1SC(=N\c2ccccc2)/C(=N/c2ccccc2)N1c1ccc2ccccc2c1`: the GI50 is inactive: > 100 µM.

Turning to `COc1cc(C2c3cc4c(cc3[C@@H](Nc3ccc(C#N)cc3)C3COC(=O)[C@H]23)OCO4)cc(OC)c1O` (some centres not stated), the GI50 was inactive: 8.43 µM.

Turning to `C[C@H](CCC(=O)O)[C@H]1CC[C@H]2[C@@H]3[C@H](O)C[C@@H]4C[C@H](O)CC[C@]4(C)[C@H]3C[C@H](O)[C@]12C`, the GI50 was inactive: > 100 µM.

As for `CC(=O)CC(=O)Nn1c(-c2cccs2)nc2ccc(I)cc2c1=O`, the GI50 is inactive: > 50.8 µM.

(Values after ChEMBL document CHEMBL1201862, “PubChem BioAssay data set” (2004).)
